Measured values: paper PMC4336329 (PLoS ONE, 2015)
Screen size: about 310,000 compounds; about 2,200 (0.71%) showed an effect of 50% or more. The effect is printed as a negative number. Some of the results follow.

target: human ether-à-go-go-related gene (hERG) potassium channel (human, UniProt Q12809); assay: primary screen, population patch clamp on CHO cells stably expressing hERG
Sequence (Q12809 whole entry, looked up): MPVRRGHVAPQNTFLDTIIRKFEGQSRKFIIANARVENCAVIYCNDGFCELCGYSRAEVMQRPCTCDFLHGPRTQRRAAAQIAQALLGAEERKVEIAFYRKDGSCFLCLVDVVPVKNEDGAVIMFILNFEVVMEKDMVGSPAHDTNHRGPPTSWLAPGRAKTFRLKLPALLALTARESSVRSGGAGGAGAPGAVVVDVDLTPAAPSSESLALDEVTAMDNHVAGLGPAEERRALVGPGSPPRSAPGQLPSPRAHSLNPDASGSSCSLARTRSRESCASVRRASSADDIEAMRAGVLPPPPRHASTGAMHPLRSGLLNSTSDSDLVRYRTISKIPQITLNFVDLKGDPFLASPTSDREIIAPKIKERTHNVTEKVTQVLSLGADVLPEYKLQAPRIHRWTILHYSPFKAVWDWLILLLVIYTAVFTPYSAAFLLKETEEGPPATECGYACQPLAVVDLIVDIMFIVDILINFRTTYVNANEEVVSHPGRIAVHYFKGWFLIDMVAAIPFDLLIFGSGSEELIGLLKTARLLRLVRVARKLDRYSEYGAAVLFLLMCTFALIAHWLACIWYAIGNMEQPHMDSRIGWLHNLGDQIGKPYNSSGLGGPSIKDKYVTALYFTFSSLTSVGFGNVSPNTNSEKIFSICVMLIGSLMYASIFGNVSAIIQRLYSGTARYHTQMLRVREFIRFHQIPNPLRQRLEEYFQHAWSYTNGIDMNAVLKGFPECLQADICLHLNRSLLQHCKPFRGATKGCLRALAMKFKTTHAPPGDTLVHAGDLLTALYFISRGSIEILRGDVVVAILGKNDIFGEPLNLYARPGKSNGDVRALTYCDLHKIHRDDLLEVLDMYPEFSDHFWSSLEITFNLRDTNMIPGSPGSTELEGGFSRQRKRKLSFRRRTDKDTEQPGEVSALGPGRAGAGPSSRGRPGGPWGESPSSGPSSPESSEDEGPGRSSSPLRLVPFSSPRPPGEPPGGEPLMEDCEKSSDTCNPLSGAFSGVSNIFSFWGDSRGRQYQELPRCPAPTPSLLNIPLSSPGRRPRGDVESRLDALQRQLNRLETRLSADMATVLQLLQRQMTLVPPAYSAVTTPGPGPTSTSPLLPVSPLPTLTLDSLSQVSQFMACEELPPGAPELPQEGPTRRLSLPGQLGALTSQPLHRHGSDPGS

First: Cc1ccccc1CC1(CO)CCCN(C(=O)CCC(=O)c2ccccc2)C1 (stereo not shown)
Second: Cc1ccccc1CNC(=O)CCC(=O)N1Cc2ccccc2Oc2ncccc21
The “hERG current change (%, negative = inhibition) at 1uM” value of the first is lower: 5.59% for the first, 5.73% for the second.

Going from `COC(=O)c1ccc(C[n+]2ccccc2)cc1.[Br-]` to `CCOC(=O)c1ccc(NC(=O)C(C)NS(=O)(=O)c2ccc(OC)cc2)cc1` (stereo not shown), the “hERG current change (%, negative = inhibition) at 1uM” value falls from 15.1% to 8.79%.

First: COc1ccc(S(=O)(=O)NC(CCSC)C(=O)NC2CCCCC2)cc1 (stereo not shown)
Second: COc1ccc(C(=O)CN2C(=O)NC3(CCCCCC3)C2=O)c(OC)c1
The “hERG current change (%, negative = inhibition) at 1uM” value of the first is higher: 15.3% for the first, -0.544% for the second.

Going from `CN(C(=O)CCN1C(=O)C(C)(C)Nc2ccccc21)c1ccccc1` to `CN(C(=O)COC(=O)c1ccccc1Nc1ccccc1)c1c(N)n(Cc2ccccc2)c(=O)[nH]c1=O`, the “hERG current change (%, negative = inhibition) at 1uM” value rises from 11% to 23.6%.

First: CCC1=Nc2cc(C(=O)NCc3ccco3)ccc2Sc2ccc(Cl)cc21
Second: Cc1cc(C)cc(NC(=O)CSc2ccc(-c3ccco3)nn2)c1
The “hERG current change (%, negative = inhibition) at 1uM” value of the first is higher: 29.8% for the first, -7.48% for the second.

Going from `CC1C(=O)N2CCCc3cc(S(=O)(=O)N(C)Cc4ccccc4)cc1c32` (stereo not shown) to `COc1ccc(-n2nc(C(=O)NCCCN3CCCC3=O)c3c4ccccc4n(C)c3c2=O)cc1Cl`, the “hERG current change (%, negative = inhibition) at 1uM” value rises from 5.86% to 22.5%.

First: CC1CCN(C(=O)c2cc3nc(C4CC4)cc(C(F)(F)F)n3n2)CC1
Second: COc1ccc(C(=O)N2CCSCC2)cc1OC1CCN(C(C)=O)CC1
The “hERG current change (%, negative = inhibition) at 1uM” value of the first is lower: -7% for the first, 19.5% for the second.

Going from `CCCCC1C(=O)NC(=S)NC1=O` to `CC(C)c1cc(Br)ccc1OCCN1C(=O)NC(C)(C)C1=O`, the “hERG current change (%, negative = inhibition) at 1uM” value rises from 6.71% to 10.7%.

First: C=CCN1C(=O)S/C(=C\c2ccc3c(c2)n(C)c(=O)n3C)C1=O
Second: CCOc1ccc2c(c1)c(N=Nc1cccc(C(=O)O)c1)c(O)n2C
The “hERG current change (%, negative = inhibition) at 1uM” value of the first is lower: 6.47% for the first, 10.8% for the second.

Going from `Cc1cc([N+](=O)[O-])nn1CC(=O)c1ccccc1` to `Cc1cc(C(F)F)n2ncc(C(=O)NCc3ccccc3F)c2n1`, the “hERG current change (%, negative = inhibition) at 1uM” value rises from 0.665% to 7.96%.

Going from `COc1cc(C(=O)NCCC(=O)NCc2c(F)cc(F)cc2F)cc(OC)c1OC` to `COc1cccc(/C=N/NC(=O)CNC(=O)c2cccnc2)c1O`, the “hERG current change (%, negative = inhibition) at 1uM” value rises from 11.7% to 18.6%.

Compared with `Cc1ccc(SCc2cc(=O)[nH]c(Nc3nc(C)c4ccc(C)cc4n3)n2)cc1`, `Cc1ccc(S(=O)(=O)Nc2ccc(S(=O)(=O)Nc3nccs3)cc2)c([N+](=O)[O-])c1` is lower in “hERG current change (%, negative = inhibition) at 1uM” value: 17.9% for the first, 9.28% for the second.

Compared with `COc1ccc(C(=O)CSc2nnc(-c3cccs3)n2-c2ccccc2)cc1`, `CS(=O)Cc1cc(Sc2ccccc2)nc(-c2cccnc2)n1` (stereo not shown) is lower in “hERG current change (%, negative = inhibition) at 1uM” value: 14.4% for the first, 2.52% for the second.

First: CC(=O)NC(Cc1ccc(F)cc1)C(=O)NC1CCN(c2nnnn2-c2ccccc2)CC1 (stereo not shown)
Second: COc1ccc(-n2cc(CNC3CCN(C)CC3)c(-c3cccc(F)c3)n2)cc1
The “hERG current change (%, negative = inhibition) at 1uM” value of the first is higher: 10.6% for the first, -64.4% for the second.

Compared with `CCOC(=O)C1CCN(C(=O)c2ccc(C)c(S(=O)(=O)N3CCCC3)c2)CC1`, `Cc1ccc2c(CC(=O)Nc3ccc(F)c(S(=O)(=O)N4CCOCC4)c3)coc2c1` is lower in “hERG current change (%, negative = inhibition) at 1uM” value: 18.1% for the first, 12.6% for the second.

Going from `Cc1ccc(NC(=O)COC(=O)CSCC(=O)Nc2cc(C)on2)c(C)c1` to `Cc1cc(C)c(C(=O)COC(=O)c2ccc(NC(=O)CC#N)cc2)cc1C`, the “hERG current change (%, negative = inhibition) at 1uM” value rises from 11% to 11.7%.

Going from `O=C(NCc1ccncc1)Nc1ccccc1Cl` to `O=C(Nc1ccccc1C(F)(F)F)c1ncn[nH]1`, the “hERG current change (%, negative = inhibition) at 1uM” value rises from 3.99% to 6.12%.

Compared with `O=C(O)CCN1C(=O)c2ccc(NC(=O)CCc3ccccc3)cc2C1=O`, `Cc1ccc(/C=C/C(=O)OCC(=O)Nc2cccc(S(=O)(=O)N(C)C)c2)o1` is lower in “hERG current change (%, negative = inhibition) at 1uM” value: 14.7% for the first, 2.87% for the second.

Going from `CC1CCCC(C)N1c1nnc(NC(=O)c2cc(-c3ccc(Br)cc3)on2)s1` (stereo not shown) to `CC(Sc1nc2ccccc2s1)C(=O)NCc1ccc2c(c1)OCO2` (stereo not shown), the “hERG current change (%, negative = inhibition) at 1uM” value falls from 9.26% to 0.802%.

First: CC(C)c1ccc(NC(=O)[C@H](NC(=O)[C@@H]2Cc3ccccc3CN2)c2ccccc2)cc1
Second: O=C(O)c1ccc(-c2ccc(/C=N/Nc3ccc([N+](=O)[O-])cc3)o2)cc1
The “hERG current change (%, negative = inhibition) at 1uM” value of the first is lower: -4.68% for the first, 9.43% for the second.

Going from `Cc1cc(C)c[n+](-c2nc3ccccc3nc2C(=C=[N-])C#N)c1` to `COC(=O)/C(C#N)=C/c1ccc(-c2ccc(S(N)(=O)=O)cc2)o1`, the “hERG current change (%, negative = inhibition) at 1uM” value falls from 15.2% to 6.1%.

With `CN(Cc1ccc(C(C)(C)C)cc1)C(=O)C1CSC2(C)CCC(=O)N12` (stereo not shown) the “hERG current change (%, negative = inhibition) at 1uM” value was 14.8%.
